Test results: US20210277110A1 (Janssen / Centocor, published 2021)

Molecular target: T1, recombinant human TIM-3-Fc fusion protein (huTIM-3-Fc) (human, UniProt Q8TDQ0 22-200)
T1 construct: range 22-200; Bought from R&D Systems (NS0-derived); Deglycosylated for HDX-MS; also called recombinant human Fc-TIM-3 chimera; TIM-3 IgG1 Fc Chimera; not shown: IgG1 Fc of the bought chimera
Assay: competition ELISA on coated Fc-TIM-3, competitor galectin-9

B1: TM3B109 (antibody, V domains shown)
VH: [left out - about 100 residues]NEEPDDRLDYWGQGTLVTVSS
VL: DIVMTQSPDSLAVSLGERATINCKSSQSVLASSNNKNYLAWYQQKPGQPPKLLIYWASTRESGVPDRFSGSGSGTDFTLTISSLQAEDVAVYYCQQYYSTPLTFGQGTKVEIK
notes: also called TM3H31/PYYL6
Galectin 9 Inhibition, % inhibition (maximal): 77%
